Target: T1, Rituximab expressed from the EBY100-(GPD) EndoS2 strain (truncated N-glycan) (human, N-glycan at N297 of a single N-acetylglucosamine residue (99.36% by ESI-MS))
T1 construct: variable region of the Rituximab heavy chain; constant region of the human IgG1 heavy chain, as in Rituximab; Rituximab light chain; IgG1; It is a molecule here only as the ligand of FcγRIIIa and of Protein A; A supplemental MS Excel worksheet lists peptides that cover 93.9% and 100% of the heavy and light chains; also called yeast-expressed Rituximab; glycoengineered Rituximab; source: S. …
Assay: SPR; Rituximab immobilised on a CM5 chip, BiaCore T200; increasing concentrations of GFP-FcγRIIIa applied until equilibrium; 1:1 binding model
Conditions: both partners purified

B1: GFP-FcγRIIIa (receptor)
chain: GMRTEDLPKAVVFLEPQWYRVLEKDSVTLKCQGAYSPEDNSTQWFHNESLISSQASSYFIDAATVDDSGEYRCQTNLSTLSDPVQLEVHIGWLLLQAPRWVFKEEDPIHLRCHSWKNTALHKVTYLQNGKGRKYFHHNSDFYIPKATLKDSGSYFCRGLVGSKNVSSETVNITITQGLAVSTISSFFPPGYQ
**Q.** For B1, which Kd is on record?
**A.** 2000 nM

— paper PMC8544235, “Expression and Display of Glycoengineered Antibodies and Antibody Fragments with an Engineered Yeast Strain” (Antibodies, 2021)
